# The other results are listed elsewhere or left out. One pool of 16,384 single-stranded DNAs met each Rep nickase domain in vitro at 3 µM enzyme and 37 °C for 1 h; the strands have 90 letters, of which the middle is given. Numbers give uncut DNA relative to the enzyme-free pool, as log2; strong cutting gives strongly negative numbers. There is no active / inactive call. Shares of all reads are compared; where an enzyme cuts many sequences, the uncut ones exceed 0.
# Experiments:
# Assay in all cases: uncleaved DNA left, log2 of reads against the no-enzyme library (log2 ratio); higher = less cleavage (more negative = more Rep cleavage of the k-mer); sequences stand for … in CTCGTCCG…ACCGGAGA
# [1] = test system: T1, Rep nickase domain of Muscovy duck circovirus
# T1 sequence (residues 1-111, tag not shown): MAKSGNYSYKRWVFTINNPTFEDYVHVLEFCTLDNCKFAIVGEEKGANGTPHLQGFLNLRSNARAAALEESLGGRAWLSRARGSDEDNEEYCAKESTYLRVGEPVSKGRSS
# Experimental: (§1)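 A pool of 90-nt single-stranded DNAs with seven random bases just before the constant AC of the nick site (name = the seven bases) was cut by 3 µM recombinant His6-SUMO-tagged Rep nickase domain (300 nM DNA, 50 mM HEPES pH 8.0, 50 mM NaCl, 1 mM MnCl2, 1 h, 37 °C, three replicates). Uncut DNA was amplified and sequenced.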
# [2] = test system: T2, Rep nickase domain of banana bunchy top virus
# T2 sequence (residues 1-94, tag not shown): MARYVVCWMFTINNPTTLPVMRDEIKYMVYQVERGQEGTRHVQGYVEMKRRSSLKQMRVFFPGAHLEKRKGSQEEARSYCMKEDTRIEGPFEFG
# Experimental: as §1
# [3] = test system: T3, Rep nickase domain of cabbage leaf curl virus
# T3 sequence (residues 1-116, tag not shown): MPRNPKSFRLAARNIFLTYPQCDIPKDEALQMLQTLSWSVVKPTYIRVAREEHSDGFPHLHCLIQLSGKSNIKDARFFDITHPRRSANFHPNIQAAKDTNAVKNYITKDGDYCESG
# Experimental: as §1
# [4] = test system: T4, Rep nickase domain of chickpea chlorotic dwarf virus
# T4 sequence (residues 1-124, tag not shown): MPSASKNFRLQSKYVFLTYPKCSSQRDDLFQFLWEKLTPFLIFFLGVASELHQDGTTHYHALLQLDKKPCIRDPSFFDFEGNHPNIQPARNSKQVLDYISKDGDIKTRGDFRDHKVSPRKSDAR
# Experimental: as §1
# [5] = test system: T5, Rep nickase domain of faba bean necrotic yellows virus
# T5 sequence (residues 1-98, tag not shown): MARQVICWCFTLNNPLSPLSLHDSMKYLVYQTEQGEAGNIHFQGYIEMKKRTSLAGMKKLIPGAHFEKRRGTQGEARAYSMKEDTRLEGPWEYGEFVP
# Experimental: as §1
# [6] = test system: T6, Rep nickase domain of maize striate mosaic virus
# T6 sequence (residues 1-117, tag not shown): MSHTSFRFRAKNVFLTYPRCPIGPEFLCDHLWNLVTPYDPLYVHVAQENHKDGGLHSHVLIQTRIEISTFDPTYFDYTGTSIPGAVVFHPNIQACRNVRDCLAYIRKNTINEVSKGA
# Experimental: as §1
# [7] = test system: T7, Rep nickase domain of porcine circovirus 2
# T7 sequence (residues 2-116, tag not shown): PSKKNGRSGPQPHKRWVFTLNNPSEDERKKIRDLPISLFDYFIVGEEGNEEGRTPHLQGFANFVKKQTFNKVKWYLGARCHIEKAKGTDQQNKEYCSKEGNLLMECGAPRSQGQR
# Experimental: as §1
# [8] = test system: T8, Rep nickase domain of tomato golden mosaic virus
# T8 sequence (residues 1-124, tag not shown): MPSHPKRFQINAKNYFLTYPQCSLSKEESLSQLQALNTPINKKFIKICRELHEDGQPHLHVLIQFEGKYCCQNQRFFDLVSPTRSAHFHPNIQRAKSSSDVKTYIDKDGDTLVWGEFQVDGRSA
# Experimental: as §1
# [9] = test system: T9, Rep nickase domain of tomato yellow leaf curl virus
# T9 sequence (residues 1-136, tag not shown): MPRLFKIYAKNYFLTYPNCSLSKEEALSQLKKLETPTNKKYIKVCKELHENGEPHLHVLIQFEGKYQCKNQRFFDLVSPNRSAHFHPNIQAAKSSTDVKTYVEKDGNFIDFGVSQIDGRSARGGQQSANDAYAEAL
# Experimental: as §1
# [10] = test system: T10, Rep nickase domain of wheat dwarf virus
# T10 sequence (residues 1-137, tag not shown): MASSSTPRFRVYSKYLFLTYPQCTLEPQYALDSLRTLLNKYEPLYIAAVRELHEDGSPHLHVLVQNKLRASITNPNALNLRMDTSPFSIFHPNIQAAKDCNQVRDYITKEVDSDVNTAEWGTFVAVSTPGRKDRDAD
# Experimental: as §1
Sequence,uncleaved DNA left (log2) [1],uncleaved DNA left (log2) [2],uncleaved DNA left (log2) [3],uncleaved DNA left (log2) [4],uncleaved DNA left (log2) [5],uncleaved DNA left (log2) [6],uncleaved DNA left (log2) [7],uncleaved DNA left (log2) [8],uncleaved DNA left (log2) [9],uncleaved DNA left (log2) [10]
TACACTT,-0.552,-1.69,-2.7,-2.79,0.0036,-0.702,-3.18,-0.332,-0.0421,-0.655
CACATAT,0.199,0.0409,-0.142,-1.79,0.00503,-0.676,-0.496,-0.084,0.0108,0.125
GCCATAC,-0.013,-0.142,-0.0985,-0.00458,-0.103,-0.37,-0.0176,-0.069,-0.11,-0.123
GAAAACG,0.0342,-0.0458,-0.764,-0.404,0.0162,-0.947,0.141,-0.0245,0.0192,-0.0637
TCCGCCT,-0.0266,-0.227,-0.0714,-1.4,-0.149,-0.469,-0.182,-0.232,-0.18,-0.274
TTACTTA,0.156,-0.105,0.0686,-1.94,0.139,0.182,-0.0671,0.0955,-0.11,0.00423
TGAAGGT,0.00828,-0.0635,0.288,0.975,-0.0275,1.53,0.0657,0.0198,-0.12,0.0702
ATACCAT,0.0261,-0.0434,0.0777,-0.587,0.00545,-0.0919,-0.135,-0.0357,-0.0236,0.0358
CCAGCTC,-0.0874,0.0846,0.107,-0.192,-0.07,-0.241,0.0393,0.0525,-0.0444,-0.115
TGATTGG,0.0985,-0.00959,-0.39,-0.477,0.0287,-1.13,0.117,-0.0597,0.0153,-0.0505
TAACCCG,-0.213,-0.0112,-0.988,-1.68,0.0721,-1.11,-1.33,-0.0506,-0.0643,-0.102
GTTGTGG,-0.0769,-0.0971,-0.0731,0.103,-0.105,-0.316,-0.00359,0.0129,0.0498,-0.0889
CGTTGTC,0.135,-0.0224,-0.33,-0.316,-0.118,-0.837,0.0321,-0.127,0.0241,-0.0699
GCTGCCC,-0.00764,0.0548,0.0464,0.48,-0.0588,0.522,0.0643,0.00594,-0.0572,-0.0461
TTCAAAG,0.106,0.0349,-0.625,-0.581,0.17,-1.18,0.304,-0.00722,0.146,0.146
ACAATTG,0.00443,0.0377,-0.7,-0.364,0.0367,-1.02,0.177,0.0755,0.112,0.0657
CTAGCTG,0.034,0.153,0.401,1.47,0.108,1.62,0.123,0.142,-0.00797,0.139
CATTTAC,0.0849,-0.0163,-0.27,-2.16,0.0509,-0.907,-0.0884,-0.0658,0.0697,-0.00893
TAGGCTG,0.00367,0.126,0.241,1.13,-0.017,1.73,0.0645,0.111,-0.118,-0.0152
TAACTTG,-0.0528,-0.107,-0.485,-2.37,-0.102,-0.967,-0.0779,-0.152,-0.0293,-0.109
GGCAGTA,0.179,0.0913,0.634,1.32,0.0843,1.84,0.188,0.0314,0.115,0.0745
TTGCCTA,-0.084,-0.131,-0.323,-0.835,-0.0175,-0.862,-1.2,-0.0448,0.146,0.0673
TAGACCT,0.0434,-0.368,-0.256,-1.09,-0.289,0.924,-3.43,-0.0332,0.109,0.0275
ATGTATA,-0.174,-0.186,-0.252,-1.79,-0.169,-0.532,-0.606,-0.16,-0.137,-0.17
GTCGCCA,-0.0671,0.016,0.304,0.716,-0.029,1.58,0.123,0.139,0.0169,0.073
CGATGTG,0.0317,0.0155,-0.324,-0.18,0.0194,-0.513,0.143,0.156,0.0528,0.114
CTGCGGT,0.0355,-0.038,-0.554,-0.553,0.0448,-0.726,0.162,0.0311,0.0791,-0.0598
GTGCAAC,-0.0483,0.0706,0.361,0.885,0.0205,1.73,0.0189,0.00333,0.0462,0.173
GCAGCTT,0.0717,-0.0398,-0.0551,-0.974,0.0481,0.0709,-0.016,0.0608,0.0564,-0.0457
ACTGAAT,0.0137,-0.099,0.155,0.516,0.159,0.555,0.0411,0.0379,0.116,0.1
